The values that follow come from the supplement of paper PMC11417369.

The other results are listed elsewhere or left out.

The assay deals with PfHDP1 homeodomain (GST-tagged). In words: gcPBM binding intensity (ln(normalized median fluorescence intensity)); higher = stronger DNA binding. The essentials:
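Using an Agilent 4 × 180k array, primer-extended double-stranded 36-bp intergenic genomic probes and negative controls were exposed for 1 h to GST-fused P. falciparum DNA-binding domains expressed in E. coli. Binding was carried out in 1× PBS with 1% milk, 0.2 mg/ml BSA, 0.5% salmon testes DNA and 0.03% Triton X-100, and protein was detected with Alexa488 anti-GST antibody and a 488 nm scan. Binding intensity is the highest Masliner-normalised natural-log median intensity across replicate spots of either probe orientation.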
“CCCAAAAAATATCATAGTACTCAACATGACTACTAT [XGTACX_site7838]”: the “gcPBM binding intensity (ln)” value came to 6.32.
Under “TTTTTGTTAACAATGGGTACAAAAAAAAGGAAAATA [XGTACX_site7466]” stands 6.56.
“AATTTTGTATAGGTATCACACATGAAATATATTATT [CACACA_site5526]”: the “gcPBM binding intensity (ln)” value came out at 6.3.
Take “TGAATAATCAATAGTACACACATATAAATATAAATA [CACACA_site7345]”: the “gcPBM binding intensity (ln)” value was determined as 6.49.
“TTTTATTTATTATTATGTACACACTATATTAAAACA [XGTACX_site1265]”: the “gcPBM binding intensity (ln)” value was 6.64.
“ACTTAGGAAATAAAACGTACATTAAATATATACATA [XGTACX_site2990]”: the “gcPBM binding intensity (ln)” value amounted to 6.25.
Regarding “GTATGTATGTATGTATGTACTTATTAATCAGTAAAA [XGTACX_site3844]”, the “gcPBM binding intensity (ln)” value stood at 7.42.
Under “TATAAATAAATAGATACACACATATTTATAAATACA [CACACA_site6219]” stands 6.52.
Under “ATAAAAGATATGTATATGTATATGTATATATATATA [TGCATGCA_negctrl_site214]” stands 8.93; under “GCTTAAGGTAAATATAAAATATAGTGTATACTTTAG [XGTACX_negctrl_site585]”, 6.25.
Consider TTACGCTGCTATATAGTGCACATAATATATGACCTG, for which the “gcPBM binding intensity (ln)” value was 9.85.
Turning to “TTTATAATTCTTACAACACACAATGTACTTTTATAT [CACACA_site8340]”, the “gcPBM binding intensity (ln)” value came to 6.53.
Consider “TTTATTTCCTTTTTGTGTACATATATATGTAATTCA [XGTACX_site1718]”, for which the “gcPBM binding intensity (ln)” value is 7.07.
For the sequence “TTAAGGCATCAACATAGTACAATTTTTCTATAATAA [XGTACX_site1114]”, the “gcPBM binding intensity (ln)” value was 6.05.
Turning to “ATTTAATACAAATACACACACAAATAAATACAGATA [CACACA_site5956]”, the “gcPBM binding intensity (ln)” value turned out to be 6.87.
“GTGATGGTACAATATACACACTTAAAAAAAAAAAAT [CACACA_site5360]”: the “gcPBM binding intensity (ln)” value amounted to 6.53.
For “ATTCTACGCACGCGCACACACAACAAAAAAAAAAAA [CACACA_site3538]”, the “gcPBM binding intensity (ln)” value is 8.22.
With “TATATACATATATATTGTACTTATTTTTATAATGTC [XGTACX_site3453]”, the “gcPBM binding intensity (ln)” value amounted to 6.21.
On to “CATGTGTGATAATGATGTACTATATTAAGCTAGTCC [XGTACX_site2690]”, for which the “gcPBM binding intensity (ln)” value was 6.28.
With “TTATTTTTTTATTCATGTACACAAGAACATTTCATT [XGTACX_site5744]”, the “gcPBM binding intensity (ln)” value came to 6.55.
Under “TACAAATATGGACACACACACATATATATATATATA [CACACA_site4488]” stands 9.27; under “TAAATATATTGGAGAGGTACACTTTTGGCATTGAAA [XGTACX_site8447]”, 6.56; under “GTATAATAGAAACACACACACACACCCAAAAAAAAA [CACACA_site2010]”, 6.87.
Consider “GTATATATAATGTGCCGTACATTTATATATTCAATA [XGTACX_site1051]”, for which the “gcPBM binding intensity (ln)” value stood at 6.25.
Turning to “AAGTATGTATCACAAAGTACTTAAGCATATATTTAA [XGTACX_site4121]”, the “gcPBM binding intensity (ln)” value came to 6.57.
Under “TTGTAATAAATAAAAGTGCATATATGGTTCCACTAT [GTGCAC_site9944]” stands 7.81; under “TTAAATGTAATATAATGTACGGATATTTACCATAAA [XGTACX_site1472]”, 6.22; under “AAATGTAATAATAAATGTACAAACATATATATGTAT [XGTACX_site8718]”, 6.59.
“TATATATACTTTTATGTACACACCTATAATATGGGT [CACACA_site1759]”: the “gcPBM binding intensity (ln)” value was 6.73.
For the sequence “AAGTTTAAAATCTTTGCACACATATAAATAAATATA [CACACA_site2554]”, the “gcPBM binding intensity (ln)” value was 10.2.
For “TGCACCCACCAACACACACACAACTAAAAAATAATG [CACACA_site2566]”, the “gcPBM binding intensity (ln)” value turned out to be 6.95.
Under “ATAAATAAATAAAAAAGTACATTTCCACTTTTAACA [XGTACX_site81]” stands 5.98; under CAATATATTATATGGGTGCAAACCACATATAAATAA, 8.55; under “TTAGGTATATATAAACGTACTCACAATATCATATAA [XGTACX_site8743]”, 6.54.
In the case of “TATTATATCTTTTCAAGTACACATAACATACTTATT [XGTACX_site1081]”, the “gcPBM binding intensity (ln)” value was 6.75.
Under “TATAATTATATAAATTGTACATAAAAAGTTTTTACT [XGTACX_site3621]” stands 6.32; under ACATATTAAATATGAGTGCAATATATATATATATAA, 9.25.
With ATTAAATTTCCTTGAGTGCACATTTTGTTAAAATAT, the “gcPBM binding intensity (ln)” value is 9.29.
On to “ATAACATATTTCTTTTGTACTCAAAATAAAATTAAT [XGTACX_site2479]”, for which the “gcPBM binding intensity (ln)” value came out at 6.2.
In the case of “AAATATATTTTATTTTGTACTTATGTATAAAATATA [XGTACX_site914]”, the “gcPBM binding intensity (ln)” value came to 6.18.
Under “AATTTTGTTGAGCACACACACATACATACATACATA [CACACA_site3154]” stands 7.64.
Take “TACAATGAAAAAATAACATGCAATTATATTTCTCTT [TGCATGCA_site833]”: the “gcPBM binding intensity (ln)” value was 6.13.
Under “TTTAAATATTTTAATACACACACGATATGTACAAAA [CACACA_site4455]” stands 6.73; under “ACGTGATAAATAAATACATGCATAGAAAGATGCATA [TGCATGCA_site91]”, 6.21.
“TATATATATATATATTGTACTAGTGCATATATATAC [XGTACX_site7926]”: the “gcPBM binding intensity (ln)” value is 10.3.
